# According to PMC6919601, “Identification of Plasmodium dipeptidyl aminopeptidase allosteric inhibitors by high throughput screening” (PLoS ONE, 2019):
# Where “and” joins values, the source holds several entries; their conditions need not be identical. Equal entries are not always repeated. Among all 110,000 compounds or so, about 230 (0.21%) showed an effect of 50% or more. The list shows a part of the results.
# Biological target: DPAP1 (Plasmodium falciparum, UniProt Q8IIJ9)
# Assay: primary screen, percent inhibition; read by cleavage of a fluorogenic dipeptide substrate; higher = more effect of the substance
# Parameters: species or system P. falciparum D10 trophozoite lysates; single well
# 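Also: 30 min substrate incubation versus DMSO and 10 µM JCP410 controls.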
# DPAP1, sequence (Q8IIJ9 whole entry, looked up): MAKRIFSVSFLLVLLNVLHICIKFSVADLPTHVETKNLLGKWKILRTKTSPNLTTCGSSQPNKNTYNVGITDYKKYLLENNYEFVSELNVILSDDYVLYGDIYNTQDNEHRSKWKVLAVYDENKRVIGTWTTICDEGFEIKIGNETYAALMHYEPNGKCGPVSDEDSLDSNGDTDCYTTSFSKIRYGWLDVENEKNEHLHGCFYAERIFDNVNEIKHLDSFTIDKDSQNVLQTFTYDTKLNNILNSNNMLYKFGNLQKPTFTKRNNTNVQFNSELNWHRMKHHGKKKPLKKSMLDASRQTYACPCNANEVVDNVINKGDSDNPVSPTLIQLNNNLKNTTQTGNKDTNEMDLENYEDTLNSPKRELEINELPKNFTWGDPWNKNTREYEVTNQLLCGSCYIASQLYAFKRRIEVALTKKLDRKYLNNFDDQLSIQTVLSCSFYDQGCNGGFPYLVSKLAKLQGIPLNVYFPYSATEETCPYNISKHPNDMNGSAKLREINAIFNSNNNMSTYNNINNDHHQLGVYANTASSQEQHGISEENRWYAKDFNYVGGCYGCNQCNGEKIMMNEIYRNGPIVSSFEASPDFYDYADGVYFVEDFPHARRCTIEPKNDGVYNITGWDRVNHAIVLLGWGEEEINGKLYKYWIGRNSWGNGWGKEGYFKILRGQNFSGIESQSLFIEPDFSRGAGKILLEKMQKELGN
row,SMILES,% Inhibition @ 10 uM
1,O=C(NCCCN1CCC(Cc2ccccc2)CC1)c1nnc(-c2cccc(Cl)c2)o1,-1.14%
2,O=C(NCC1(c2ccccc2)CCCC1)c1noc2c1COc1ccccc1-2,47.2%
3,O=C(CSCc1ccco1)c1ccccc1,8.75%
4,Cn1c2ccccc2c2c(C(=O)NCc3ccc4c(c3)OCO4)cn(C3CCCC3)c(=O)c21,-3.39%
5,COP(=O)(OC)C(Nc1ccc(C)cc1)c1c[nH]c2ccccc12 (stereo not shown),-0.744%
6,NC(=O)CS(=O)(=O)c1ccc(Cl)cc1,-1.29%
7,COc1cc2c(cc1OC)C(c1cc(Cl)ccc1O)NCC2 (stereo not shown),1.57%
8,C/C(Cl)=C\Cn1c(N2CCNCC2)nc2c1c(=O)[nH]c(=O)n2C,-2.41%
9,COc1ccc(Cc2nnc(C(=O)NCC3CCCO3)o2)cc1OC (stereo not shown),-5.05%
10,O=C(Nc1ccc(S(=O)(=O)N2CCOCC2)cc1)c1cccs1,-2.78%
11,CCN(C(=O)COc1ccc(Cl)cc1Br)c1ccccc1,-3.26%
12,Cc1oc(-c2cccs2)nc1CSc1nncn2c1cc1sccc12,-6.89%
13,COCCNC1C2CC3CC(C2)CC1C3 (stereo not shown),3.18%
14,CCc1ccc(-c2[nH]nc3nc(-c4cccs4)cc(C(=O)O)c23)cc1,5.62%
15,CCCc1cc(N2CCN(C(=O)c3ccco3)CC2)n2c(nc3ccccc32)c1C#N,-0.85%
16,Cc1cc(C)c2c(c1)OC(N1CCOCC1)C(C)(C)C2O (stereo not shown),-1.65%
17,c1nc(N2CCCCCC2)c2c3c(sc2n1)CCCC3,0.774%
18,CC(=O)Nc1ccc(Nc2nc(C)c(C(C)=O)s2)cc1,1.92%
19,O=C(Cc1ccccc1)Nc1nnc(COc2ccccc2)s1,-2.41%
20,CC1CC(=O)NN=C1c1ccc(N)c(N)c1 (stereo not shown),-4.8%
21,CCCCC(=O)Nc1cccc2c(NC(=O)CCCC)cccc12,-4.4%
22,CCOC(=O)c1cnc2c(C)cc(Cl)cc2c1NCCCO,5.17%
23,Cn1c2ccccc2c2nnc(SCC(=O)Nc3sc4c(c3C#N)CCCC4)nc21,-3.48%
24,COCCNC(=O)Nc1cn(CC(C)C)c(=O)c2ccccc12,-4.78%
25,COc1ccc(NC(=O)CN(C2CCCCC2)S(C)(=O)=O)cc1OC,0.709%
26,O=C(NCc1ccccc1)c1ccc(CS(=O)Cc2ccccc2Cl)o1 (stereo not shown),-1.28%

row,SMILES,% Inhibition @ 10 uM
1,Cn1c(=O)c2c(nc(NCc3ccccc3)n2CC(O)COc2ccccc2)n(C)c1=O (stereo not shown),-1.11%
2,CCOc1ccc(/C=C2/Sc3ccccc3C2=O)cc1OCC,4.41%
3,CC1CN(Cc2nc3c(c(=O)n(C)c(=O)n3C)n2CC(=O)c2ccccc2)CC(C)O1 (stereo not shown),-1.43%
4,CCCc1ccc(-c2c(C)sc(NC(=O)c3ccnn3C)c2C#N)cc1,-1.98%
5,CC(NC(=O)c1ccc(CS(=O)(=O)c2ccc(Cl)cc2)o1)c1ccc2c(c1)OCCO2 (stereo not shown),2.35%
6,CC(C)c1ccc(-n2cccc2/C=C2\C(=N)N3N=CSC3=NC2=O)cc1,0.208%
7,CCC(=O)Nc1ncc2c(n1)CC(c1ccc(C)cc1)CC2=O (stereo not shown),2.36%
8,CN1CCN(C(=O)CCC(=O)O)CC1,-1.76%
9,CC1CCCC(C)N1C(=O)C1CC(c2ccccc2F)=NO1 (stereo not shown),-2.16%
10,CCCCCCCCCP(=O)(O)c1ccccc1,-2%
11,COc1ccc(C2Nc3ccccc3C(=O)N2c2ccccc2)cc1CN1CCOCC1 (stereo not shown),-9.66%
12,COc1ccccc1NC(=O)c1c(-c2ccccc2Cl)noc1C,-0.425%
13,CCCn1c(Nc2nc3ccccc3n2C)nc2ccccc21,-9.37%
14,CC1CCc2nc3sc(C(N)=O)c(N)c3cc2C1 (stereo not shown),21.1%
15,CCc1c(O)n2ccccc2nc1=O,-5.5%
16,Cc1ccc(-c2noc(COc3cccc(C)c3)n2)cc1,-3.29%
17,C=CCc1cc(/C=C2\C(=N)N3N=C(S(C)(=O)=O)SC3=NC2=O)cc(OC)c1O,1.9%
18,CCc1nc2c(C)ccc(C)c2c(N)c1C,-3.09%
19,Cc1ccc(NC(=O)c2ccccc2Br)cc1Cl,0.62%
20,c1ccc(Cc2nn3c(Cn4cnc5ccccc54)nnc3s2)cc1,21.2%
21,COc1cccc2c(O)c3cccc(N)c3nc12,-8.49%
22,O=C1C(=C2C=CN(CCc3ccccc3)C=C2)C(=O)c2ccccc21,-5.2%
23,Cn1nnc2c(NC3CC3)nc(Cc3ccc(Cl)cc3Cl)nc21,5.06%
24,Cc1ccc(NC(=O)c2sc3nc4c(cc3c2N)CCC4)c(C)c1,4.08%
25,O=C(O)/C=C/C(=O)Nc1cc(Cl)cc(Cl)c1,0.467%
26,Cc1cccc2sc(NC(=O)c3cccs3)nc12,3.8%

row,SMILES,% Inhibition @ 10 uM
1,O=C(NCCOc1ccccc1Cc1ccccc1)c1ccc2c(c1)OCO2,-2.63%
2,CCOC(=O)N1CCC(NC(=O)C2CCCN2C(=O)OCc2ccccc2)CC1 (stereo not shown),-2.17%
3,CC(NC(=O)CSc1nnnn1-c1ccc2c(c1)OCO2)C12C[C@H]3C[C@@H](C1)C[C@@H](C2)C3 (stereo partly shown),-2.05%
4,CC1CCCC(C)N1CCCNC(=O)c1ccc2nc(N3CCCCC3)sc2c1 (stereo not shown),-4.15%
5,Cc1nnc(N2CCC(C(=O)N(C)Cc3ccccc3)CC2)c2nn(-c3ccccc3)c(C)c12,3.74%
6,CC(=O)N1CCN(CCC(C)c2ccccc2)CC1 (stereo not shown),1.88%
7,N#CCNC(=O)[C@H](CSCc1ccccc1)NC(=O)c1ccc2ccccc2c1,-6.98%
8,CCc1ccc(C2C=C(c3ccc(Br)cc3)Nc3ncnn32)cc1 (stereo not shown),1.73%
9,Oc1nnc(-c2cccc3ccccc23)c2cn(-c3ccccc3)nc12,-9.11%
10,Cc1ccc2c(nc3s/c(=C/c4ccc(F)cc4)c(=O)n32)c1C,3.32%
11,COc1ccc(OCC(=O)Nc2ccc(S(=O)(=O)Nc3nccs3)cc2)cc1,-5.07%
12,O=C(CCn1cccc1)NC1CCCCCC1,2.57%
13,O=C(CN1CCCCC1)n1c2ccccc2c2ccccc21,2.03%
14,Cc1ccc(CN(C(=O)COc2c(F)c(F)c(F)c(F)c2F)C2CCS(=O)(=O)C2)o1 (stereo not shown),3.77%
15,CC(=O)C1=C(O)C(=O)N(CCc2c[nH]c3ccccc23)C1c1ccc(Cl)cc1 (stereo not shown),3.8%
16,CC(C)(C)c1ccc(C(=O)Nc2cccc(NC(=O)c3cccc([N+](=O)[O-])c3)c2)cc1,17.2%
17,O=C(c1cc2c(Cl)nc3ccccc3c2s1)N1CCN(Cc2ccccc2)CC1,-3.37%
18,Cc1ccc2nc(NC(=O)C3CCCO3)sc2c1 (stereo not shown),3.17%
19,CCc1cc2c(N3CCN(Cc4ccc5c(c4)OCO5)CC3)ncnc2s1,-16.1%
20,O=C(NCCN1CCOCC1)c1cnn2c(C(F)(F)F)cc(-c3ccc(F)cc3)nc12,8.21%
21,COc1ccc(CC(C)NCC2CCCO2)cc1 (stereo not shown),-3.6%
22,COc1ccc(-c2nc(C#N)c(N3CC(C)CC(C)C3)o2)cc1 (stereo not shown),6.73%
23,CCOCCn1c(CN2CCC(C)CC2)nc2c1c(=O)n(C)c(=O)n2C,-1.43%
24,Cc1ccc(-c2cn3nc(N4CCCC(C(=O)NC(C)C)C4)sc3n2)cc1 (stereo not shown),3.21%
25,O=c1/c(=C\c2c[nH]c3ccccc23)sc2n1CCN=2,-5.04%
26,Clc1cccc(N2CCN(C3CCSC3)CC2)c1 (stereo not shown),-2.91%

row,SMILES,% Inhibition @ 10 uM
1,COCCN(Cc1ccco1)C(=O)Cn1ncc2c1-c1cc(C)ccc1OC2,-1.36%
2,COc1ccc(-c2noc(N3CCC(C(=O)N4CCC(Cc5ccccc5)CC4)CC3)n2)cc1,3.36%
3,O=C(O)c1ccc(Cl)c(S(=O)(=O)N2CCCCC2)c1,-4.08%
4,C/C(=C\c1ccccc1F)C(=O)c1c(C)cc(C)nc1O,17.9%
5,COc1ccc(C2=N/C(=C\c3coc4ccccc4c3=O)C(=O)O2)c(Cl)c1,10.5%
6,O=C(CN(c1ccc2c(c1)OCCO2)S(=O)(=O)c1ccccc1)NC1CC1,-0.872%
7,O=C(O)c1cc2c(Cl)ccc3c2n1CCO3,-3.53%
8,CC(C)C[C@H](NC(=O)c1ccc2c(c1)CCCC2)C(=O)NCC#N,-1.82%
9,Cc1cc(C(=O)NC(C)(C)C)on1,3.01%
10,Cc1ccc(NC(=O)Nc2ccc(C(=O)N3CCCCC3)cc2)cc1,-0.28%
11,COc1ccc(CN(CCc2ccccc2)S(=O)(=O)c2cccc3nsnc23)cc1,-3.96%
12,Cc1cc(/C=C2/SC(=O)N(CC(=O)N3CCN(c4ccccc4)CC3)C2=O)c(C)n1C(C)C,5.44%
13,CCCn1c(CCNC(=O)COc2ccccc2)nc2ccccc21,-1.29%
14,CN(C)Cc1ccc(O)c(CCc2ccccc2)n1,0.716% and -2.18%
15,CCOc1ccc(CCNC(=O)Cn2ncc3c(=O)oc4ccc(C)cc4c32)cc1OCC,-0.0115%
16,Cc1ccc(C)c(Cn2c(C(=O)O)c(CNCc3ccco3)c3ccccc32)c1,10.8%
17,Cc1ccc(NC(=O)COc2ccc(C)cc2C)cc1,-8.06%
18,O=C(CSc1c2c(nc3ccccc13)CCCC2)NCc1cccnc1,-3.23%
19,O=C(/C=C/c1ccco1)c1ccc(F)cc1,14.1%
20,COc1ccc(OC)c(C2CC(c3ccc(Br)cc3)=NN2C(=O)CCC(=O)O)c1 (stereo not shown),12.3%
21,O=C(c1cccs1)N1CCN(C(c2ccccc2)c2ccccc2)CC1,-5.92%
22,Clc1cccc(CN2CCN(Cc3ccncc3)CC2)c1,-1.3%
23,Cc1cc(=O)oc2cc(OCC(=O)Nc3ccccc3Cl)ccc12,10.2%
24,N#CCNC(=O)[C@H](CSCc1ccccc1)NC(=O)c1cccc(C(=O)c2ccccc2)c1,-0.214%
25,COC(=O)C12CC3CC(C)(CC(C)(C3)C1)C2,-0.424%
